Screen size: about 200,000 compounds; about 4,500 (2.2%) were called active. The shares of active, inactive and inconclusive entries below differ from those in the screen. Calls follow the shape of the dose curve; as a rule, active = well fitted inhibition curve with a large enough effect; inconclusive = small, poorly fitted or top-dose-only effect, or effect the other way; inactive = flat fitted curve, though single readings scatter. Potencies of inconclusive entries are doubtful fits and often do not repeat.
These compounds were tested against Cruzipain (Trypanosoma cruzi) (UniProt P25779) (assay: qHTS Assay for Promiscuous and Specific Inhibitors of Cruzain (without detergent)). Details: purified cruzain, Z-FR-AMC fluorescence, no detergent.
How it was run: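 Purified cruzain at 1.5 nM, pre-incubated 15 min with compound at room temperature in 100 mM sodium acetate pH 5.5, 5 mM DTT, 0.00005% Triton X-100. Reaction started with 2 uM Z-FR-AMC; AMC fluorescence increase over 60 s gives rate.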
Also: nearly all actives have a fitted effect of over 40% in size.
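For max response, negative = inhibition in this document: plate controls were enzyme without inhibitor for no effect and buffer without enzyme for full effect.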
Potency is read from the fitted curve at half-maximal effect; tags tell the direction and shape of the fitted curve.

Chain of UniProt P25779 (P25779 whole entry, looked up): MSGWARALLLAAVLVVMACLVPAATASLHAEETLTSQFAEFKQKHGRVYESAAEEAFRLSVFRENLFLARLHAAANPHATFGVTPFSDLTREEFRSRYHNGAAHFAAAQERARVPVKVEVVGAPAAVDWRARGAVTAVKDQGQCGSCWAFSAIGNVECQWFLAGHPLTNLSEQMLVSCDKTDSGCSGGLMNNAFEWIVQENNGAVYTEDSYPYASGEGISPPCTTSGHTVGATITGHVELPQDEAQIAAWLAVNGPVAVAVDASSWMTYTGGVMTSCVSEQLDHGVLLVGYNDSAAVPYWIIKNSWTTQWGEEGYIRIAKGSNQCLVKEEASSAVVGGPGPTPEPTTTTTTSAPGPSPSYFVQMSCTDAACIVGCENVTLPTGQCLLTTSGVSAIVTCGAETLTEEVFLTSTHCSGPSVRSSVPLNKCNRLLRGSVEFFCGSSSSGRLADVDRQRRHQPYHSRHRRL

Compound	max response, negative = inhibition	Potency
CN(C(=O)Cn1cc(S(=O)(=O)N2CCN(c3ccccc3F)CC2)c2ccccc2c1=O)c1ccc(Cl)cc1	inactive: -29.2%	–
COc1cc(-c2nnc(SCC(=O)N(Cc3ccccc3)C(C)(C)C)o2)cc(OC)c1OC	–	inconclusive: 31.6 µM [activator, single point]
Cc1ccc(CNC(=O)Nc2cn(CC(C)C)c(=O)c3ccccc23)cc1	–	inconclusive: 31.6 µM [inhibitor, single point]
COc1ccc(-c2cc3nc(C)c(CCC(=O)Nc4cccc(C(F)(F)F)c4)c(C)n3n2)c(OC)c1	–	inconclusive: 3.16 µM [activator, single point]
COc1cc(NC(=O)C23CC4CC(C2)CC(n2nnc(C)n2)(C4)C3)c(OC)cc1Cl	–	inconclusive: 31.6 µM [activator, single point]
COC(=O)C(Cc1c[nH]c2ccccc12)NC(C)=O (stereo unspecified)	–	inconclusive: 12.6 µM [activator, partial curve]
CCn1cc2nc(SCC(=O)Nc3ccccc3F)n(Cc3ccc(C)cc3)c(=O)c2n1	inactive: 10.3%	–
CCc1ccc(NC(=O)CS(=O)CC(=O)NC(C)CCc2ccco2)cc1 (stereo unspecified)	–	active: 25.1 µM
N#Cc1ccccc1-c1ccc2ncnc(NCc3ccccc3)c2c1	inactive: -3.16%	–
CN(C)c1ncc2nc(-c3ccc(Cl)cc3)c(=O)n(CCC#N)c2n1	inactive: 3.81%	–
CCOC(=O)c1ccccc1NC(=O)Cn1c(=O)n(CCCC(=O)NCc2ccc3c(c2)OCO3)c(=O)c2ccccc21	inactive: -4.32%	–
CC12CC(NC(=O)N1c1ccc(C(=O)N3CCN(c4ccc(F)cc4)CC3)cc1)c1ccccc1O2 (stereo unspecified)	–	inconclusive: 20 µM [activator, partial curve]
COc1cccc(-c2csc(-c3c(N)c(C(=O)c4ccccc4)n4ccccc34)n2)c1	–	active: 7.94 µM
Cc1c(C(=O)OCC(=O)NCCN2C(=O)CSC2=O)oc2c1ccc1ccccc12	–	inconclusive: 31.6 µM [activator, single point]
Cn1cc(S(=O)(=O)N2CCCCC2)cc1C(=O)N1CCN(c2ccccc2F)CC1	inactive: 26.5%	–
Cc1nc(N2CCCC2)ncc1C(=O)N1CCN(c2ccc(Cl)cc2)CC1	–	inconclusive: 39.8 µM [activator, single point]
Cc1ccc(C)c(-n2cc(-c3ccccc3)nc2SCC(=O)Nc2ccccc2)c1	–	inconclusive: 39.8 µM [inhibitor, single point]
O=C(Oc1ccc(OC(=O)c2ccco2)c(S(=O)(=O)c2ccc(Cl)cc2)c1)c1ccco1	–	inconclusive: 39.8 µM [inhibitor, single point]
CC(C)C[C@@H](CC(=O)N[C@H](CC(=O)N[C@@H]1CCNC[C@H]1C(=O)N[C@H](CC(=O)N[C@@H](CCC(=O)O)CC(=O)O)Cc1c[nH]c2ccccc12)C(C)C)NC(=O)[C@@H]1CCCC[C@H]1N	inactive: -14.3%	–
COc1ccc(-c2nn(-c3ccccc3)cc2/C=C2/SC(=S)N(Cc3ccco3)C2=O)c(C)c1	–	active: 3.16 µM
O=C(COc1ccc2ccccc2c1)NNC(=O)Cc1cccc2ccccc12	–	inconclusive: 31.6 µM [inhibitor, single point]

Compound	max response, negative = inhibition	Potency
CC(C)Oc1ccccc1/C=N/NC(=O)c1ccc(F)cc1	inactive: -5.13%	–
Cc1ccc(C(=O)n2c(-c3ccccc3)cnc2SCC(=O)Nc2ccc(C)cc2C)cc1	–	inconclusive: 39.8 µM [inhibitor, single point]
Cc1sc(NC(=O)c2ccc(Cl)s2)c(C(N)=O)c1C	–	inconclusive: 25.1 µM [inhibitor, single point]
CCCn1c(-c2ccc(F)cc2)nc2c(NCCCN3CCOCC3)nc(C)nc21	inactive: -4.03%	–
Cc1c(CN(C)C(=O)c2sc3cc(Cl)ccc3c2Cl)cnn1C	–	inconclusive: 39.8 µM [activator, single point]
O=c1c2c(-c3cccs3)csc2ncn1-n1cccc1	–	inconclusive: 25.1 µM [inhibitor, single point]
Cc1ccc(CNC(=O)c2cnc3c(-c4ccccc4)c(C)nn3c2C)o1	inactive: -6.3%	–
CCc1ccc(C(=O)COC(=O)c2cccc(N3C(=O)c4c(C)nc5ccccc5c4C3=O)c2)cc1	–	active: 6.31 µM
CCNc1ncc2nc(-c3ccc(F)cc3)c(=O)n(CCC#N)c2n1	inactive: 4.72%	–
Cc1ccc(CN2CCCn3nc(C(=O)NCc4cc(C)ccc4C)cc3C2=O)cc1	inactive: -3.16%	–
O=C(Cc1c[nH]c2ccccc12)Nc1nc2ccccc2[nH]1	–	active: 25.1 µM
CO[C@H]1C=CO[C@@]2(C)Oc3c(C)c(O)c4c(O)c(c(C=NN5CCN(C)CC5)c(O)c4c3C2=O)NC(=O)C(C)=CC=C[C@H](C)[C@H](O)[C@@H](C)[C@@H](O)[C@@H](C)[C@H](OC(C)=O)[C@@H]1C	–	inconclusive: 3.98 µM [activator, full curve]
Cc1cc(C)c2nc(N3CCC(C(=O)N4CCN(c5ncccn5)CC4)CC3)sc2c1	–	inconclusive: 20 µM [activator, partial curve]
COc1ccc(C2Nc3ccccc3C(=O)N2c2ccc(Cl)cc2)cc1Cn1cc([N+](=O)[O-])cn1 (stereo unspecified)	–	inconclusive: 25.1 µM [inhibitor, single point]
CC1=NN(c2ccccc2)C(=O)/C1=C/C=C/c1ccccc1	–	inconclusive: 39.8 µM [activator, single point]
Cc1cccc(C)c1OCc1nc2ccccc2c(=O)n1/N=C/c1ccc(OCC(=O)O)cc1	–	inconclusive: 5.01 µM [activator, single point]
O=C(O)CCc1nnc2cnc3ccccc3n12	inactive: 1.87%	–
Cc1ccc2[nH]c3c(NCCN4CCOCC4)ncnc3c2c1	–	active: 20 µM
CCOCCCn1c(SC(C(=O)Nc2cc(C)ccc2C)c2ccccc2)nnc1-c1ccc(Cl)cc1 (stereo unspecified)	–	inconclusive: 20 µM [inhibitor, single point]
COc1cc([C@H]2Oc3cc([C@H]4Oc5cc(O)cc(O)c5C(=O)[C@@H]4O)ccc3O[C@@H]2CO)ccc1O	–	inconclusive: 31.6 µM [inhibitor, single point]
